Test results: patent US20240336672A1

Assays:
Conditions in all cases: remark: other sources report otherwise
[1] = target: SARS-CoV-2 RBD (B.1.1.7) domain (SARS-CoV-2); test: RBD/ACE2 blocking ELISA
[2] = target: T1, SARS-CoV-2 kappa variant B.1.617.1/3 RBD domain (SARS-CoV-2); test: RBD/ACE2 blocking ELISA
[3] = target: T2, SARS-CoV-2 delta variant B.1.617.2/3 RBD domain (SARS-CoV-2); test: RBD/ACE2 blocking ELISA
[4] = target: SARS-CoV-2 delta plus variant RBD (SARS-CoV-2); test: RBD/ACE2 blocking ELISA
[5] = target: SARS-CoV-2 RBD domain, Wuhan (SARS-CoV-2); test: RBD/ACE2 blocking ELISA
[6] = target: SARS-CoV-2 RBD (B.1.351) domain (SARS-CoV-2); test: RBD/ACE2 blocking ELISA
[7] = target: SARS-CoV-2 RBD (P.1) domain (SARS-CoV-2); test: RBD/ACE2 blocking ELISA
[8] = target: SARS-CoV-2 RBD (B.1.1.7) domain (SARS-CoV-2); test: ELISA; set-up: unit not given beside the values
[9] = target: T1, SARS-CoV-2 kappa variant B.1.617.1/3 …; test: ELISA; set-up: unit not given beside the values
[10] = target: T2, SARS-CoV-2 delta variant B.1.617.2/3 …; test: ELISA; set-up: unit not given beside the values
[11] = target: SARS-CoV-2 delta plus variant RBD (SARS-CoV-2); test: ELISA; set-up: unit not given beside the values
[12] = target: SARS-CoV-2 RBD domain, Wuhan (SARS-CoV-2); test: ELISA; set-up: unit not given beside the values
[13] = target: SARS-CoV-2 RBD (P.1) domain (SARS-CoV-2); test: ELISA; set-up: unit not given beside the values
[14] = target: SARS-CoV-2 RBD (B.1.351) domain (SARS-CoV-2); test: ELISA; unit from paragraph 452, none printed in the heatmap
[15] = target: SARS-CoV-2 omicron variant B.1.1.529 RBD domain (SARS-CoV-2); test: as above

Binder	% binding inhibition [1]	% binding inhibition [2]	% binding inhibition [3]	% binding inhibition [4]	% binding inhibition [5]	% binding inhibition [6]	% binding inhibition [7]	AUC [8]	AUC [9]	AUC [10]	AUC [11]	AUC [12]	AUC [13]	EC50 [14]	EC50 [15]
COV2-2196 (parental IgG1 version) (antibody, V domains shown) VH: QMQLVQSGPEVKKPGTSVKVSCKASGFTFMSSAVQWVRQARGQRLEWIGWIVIGSGNTNYAQKFQERVTITRDMSTSTAYMELSSLRSEDTAVYYCAAPYCSSISCNDGFDIWGQGTMVTVSS VL: [omitted - about 100 residues]GWTFGQGTKVEIK	83%	91%	92%	96%	97%	58%	44%	3	4	3	3	3	4		
Tixagevimab (antibody) heavy chain: QMQLVQSGPEVKKPGTSVKVSCKASGFTFMSSAVQWVRQARGQRLEWIGWIVIGSGNTNYAQKFQERVTITRDMSTSTAYMELSSLRSEDTAVYYCAAPYCSSISCNDGFDIWGQGTMVTVSS light chain: [omitted - about 100 residues]GWTFGQGTKVEIK														0.006 µg/mL	2.08 µg/mL
